Test results reported in the supplement of paper PMC4967469.

Compound: FC(F)c1nc2ccccc2n1-c1nc(N2CCOCC2)nc(N2CCOCC2)n1 [ZSTK474]
Assay: Viability of human cancer cell lines after 72 h of drug (GDSC screen)
Procedure: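 Human cancer cell lines in 384-well plates, medium with 10% serum, drug for 72 h over a 256-fold dose range (nine 2-fold or five 4-fold steps up to the top dose). Adherent lines were fixed and stained with the nucleic acid dye Syto60, suspension lines read with resazurin; signal relative to control wells, capped at 0 and 100%. One two-parameter sigmoid per drug and line, fitted in a mixed model over all curves with the slope shared within a line.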

| Cell Line | AUC | IC50 [µM] |
| --- | --- | --- |
| SW13 (adrenal gland, adherent, top dose 5.12 µM) | 0.988 | > 5.12 |
| SW48 (large intestine, adherent, top dose 5.12 µM) | 0.839 | 3.49 |
| SW156 (kidney, adherent, top dose 5.12 µM) | 0.79 | 2.56 |
| SW620 (large intestine, adherent, top dose 5.12 µM) | 0.8 | 2.16 |
| SW626 (ovary, adherent, top dose 5.12 µM) | 0.549 | 0.447 |
| SW684 (fibrosarcoma, adherent, top dose 5.12 µM) | 0.959 | > 5.12 |
| SW756 (cervix, adherent, top dose 5.12 µM) | 0.983 | > 5.12 |
| SW780 (bladder, adherent, top dose 5.12 µM) | 0.974 | > 5.12 |
| SW837 (large intestine, adherent, top dose 5.12 µM) | 0.71 | 1.54 |
| SW872 (soft tissue, adherent, top dose 5.12 µM) | 0.896 | > 5.12 |
| SW900 (lung squamous cell carcinoma, adherent, top dose 5.12 µM) | 0.893 | > 5.12 |
| SW948 (large intestine, adherent, top dose 5.12 µM) | 0.83 | > 5.12 |
| SW954 (urogenital system, adherent, top dose 5.12 µM) | 0.554 | 0.451 |
| SW962 (urogenital system, adherent, top dose 5.12 µM) | 0.804 | 3.34 |
| SW982 (soft tissue, adherent, top dose 5.12 µM) | 0.985 | > 5.12 |
| SW1088 (glioma, adherent, top dose 5.12 µM) | 0.817 | 4 |
| SW1116 (large intestine, adherent, top dose 5.12 µM) | 0.963 | > 5.12 |
| SW1271 (small cell lung carcinoma, adherent, top dose 5.12 µM) | 0.813 | 3.29 |
| SW1417 (large intestine, adherent, top dose 5.12 µM) | 0.919 | > 5.12 |
| SW1463 (large intestine, adherent, top dose 5.12 µM) | 0.617 | 0.845 |

| Cell Line | AUC | IC50 [µM] |
| --- | --- | --- |
| SW1573 (lung adenocarcinoma, adherent, top dose 5.12 µM) | 0.839 | > 5.12 |
| SW1710 (bladder, adherent, top dose 5.12 µM) | 0.581 | 0.538 |
| SW1783 (glioma, adherent, top dose 5.12 µM) | 0.976 | > 5.12 |
| SW1990 (pancreas, adherent, top dose 5.12 µM) | 0.886 | > 5.12 |
| Saos-2 (osteosarcoma, adherent, top dose 5.12 µM) | 0.956 | > 5.12 |
| SiHa (cervix, adherent, top dose 5.12 µM) | 0.972 | > 5.12 |
| T47D (breast, adherent, top dose 5.12 µM) | 0.439 | 0.2 |
| T84 (large intestine, adherent, top dose 5.12 µM) | 0.817 | 2.92 |
| T98G (glioma, adherent, top dose 5.12 µM) | 0.907 | > 5.12 |
| T-24 (bladder, adherent, top dose 5.12 µM) | 0.92 | > 5.12 |
| T-T (oesophagus, adherent, top dose 5.12 µM) | 0.974 | > 5.12 |
| TALL-1 (T-cell lymphoblastic leukaemia, suspension, top dose 5.12 µM) | 0.949 | > 5.12 |
| TC-71 (Ewing sarcoma, adherent, top dose 5.12 µM) | 0.709 | 1.1 |
| TCCSUP (bladder, adherent, top dose 5.12 µM) | 0.931 | > 5.12 |
| TE-1 (oesophagus, adherent, top dose 5.12 µM) | 0.845 | > 5.12 |
| TE-4 (oesophagus, adherent, top dose 5.12 µM) | 0.718 | 1.32 |
| TE-5 (oesophagus, adherent, top dose 5.12 µM) | 0.812 | 3.28 |
| TE-6 (oesophagus, adherent, top dose 5.12 µM) | 0.803 | 3.07 |
| TE-8 (oesophagus, adherent, top dose 5.12 µM) | 0.845 | 4.09 |
| TE-9 (oesophagus, adherent, top dose 5.12 µM) | 0.925 | > 5.12 |

By IC50 is meant the dose at which the fit gives 50% viability; a limit (>, <) means that the fit lies beyond the doses tested. AUC sums up the same curve from the lowest dose to the 256-fold higher top dose; it is 1 without any effect and falls as sensitivity rises.
